According to PMC11637378, “Optogenetic screening of MCT1 activity implicates a cluster of non-steroidal anti-inflammatory drugs (NSAIDs) as inhibitors of lactate transport” (PLOS ONE, 2024):
“And” between values parts separate entries of the source, which are not always exact repeats. Equal values may be shown once. Read-outs that look alike come from different tables or passages of the source.

Target: T1, R. norvegicus MCT1 (F360C) (UniProt P36035+P53987, F360C)
T1 sequence (P36035+P53987 with tags, fused parts or gaps P53987:F360C): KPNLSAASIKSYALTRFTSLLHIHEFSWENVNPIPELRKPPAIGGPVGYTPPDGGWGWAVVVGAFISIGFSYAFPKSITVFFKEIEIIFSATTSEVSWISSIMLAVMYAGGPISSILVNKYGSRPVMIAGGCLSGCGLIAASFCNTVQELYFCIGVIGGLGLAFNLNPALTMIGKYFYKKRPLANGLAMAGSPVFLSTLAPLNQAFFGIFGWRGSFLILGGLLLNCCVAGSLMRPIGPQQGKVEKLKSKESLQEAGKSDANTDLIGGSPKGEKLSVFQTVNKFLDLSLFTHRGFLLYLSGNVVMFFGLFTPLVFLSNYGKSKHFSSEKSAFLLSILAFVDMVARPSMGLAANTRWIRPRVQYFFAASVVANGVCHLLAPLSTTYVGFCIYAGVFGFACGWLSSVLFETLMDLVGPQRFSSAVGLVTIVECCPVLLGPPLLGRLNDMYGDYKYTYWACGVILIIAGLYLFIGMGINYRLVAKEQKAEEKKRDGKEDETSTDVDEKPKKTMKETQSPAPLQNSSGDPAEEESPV
Format: cell-based

Compound	Day1	Day2	Fraction	Offtarget_sub	Z.score	Percent AZD3965 [%]	other results
CCCCCCC(=O)OC1CC(C)(C)NC(C)(C)C1.Cl [TMPH hydrochloride, reference compound]	–	–	–	–	–	–	Day1 (OD600 after 24 hours non-permissive dark conditions): 0.5599; Day2 (OD600 after additional 24 hours permissive conditions): 0.8312; Fraction (growth in non-permissive phase divided by growth in permissive phase) (10 μM): 0.6736; Percent (percent AZD3965 score) (10 μM): -2.347%; Z-score (10 μM): 0.1589
O=[N+]([O-])c1ccc(CNc2nc(NCc3cccc(C(F)(F)F)c3)nc3[nH]cnc23)cc1 [TNP]	0.2699	0.8663	0.3116	0.1335	-4.697	–	Fraction (10 μM): 0.3116; Percent AZD3965 (10 μM): 64.276%; Z.score (10 μM): -4.697
CSc1nc2cc(Cl)c(Oc3cccc(Cl)c3Cl)cc2[nH]1 [TRICLABENDAZOLE]	0.2135	0.794	–	–	–	–	Fraction (10 μM): 0.2689; Percent AZD3965 (10 μM): 78.824%; Z.score (10 μM): -3.978
C=CC[C@@H]1/C=C(\C)C[C@H](C)C[C@H](OC)[C@H]2O[C@@](O)(C(=O)C(=O)N3CCCC[C@H]3C(=O)O[C@H](/C(C)=C/[C@@H]3CC[C@@H](O)[C@H](OC)C3)[C@H](C)[C@@H](O)CC1=O)[C@H](C)C[C@@H]2OC [Tacrolimus]	0.3533 and 0.2693	0.8731 and 0.9365	0.4047 and 0.2876	0.2062	–	71.9076	–
CC/C(=C(\c1ccccc1)c1ccc(OCCN(C)C)cc1)c1ccccc1.O=C(O)CC(O)(CC(=O)O)C(=O)O [Tamoxifen Citrate]	0.3628	0.8165	0.4443	0.2095	-3.14	–	–
CC/C(=C(\c1ccccc1)c1ccc(OCCN(C)C)cc1)c1ccccc1.O=C(O)CC(O)(CC(=O)O)C(=O)O [Tamoxifen citrate]	–	–	–	–	–	46.4713	–
NCCS(=O)(=O)O [Taurine]	0.2305	0.8742	0.2637	0.0852	-3.504	76.6253	–
CCOC(=O)[C@@H](N)Cc1ccc(-c2cc(O[C@H](c3ccc(Cl)cc3-n3ccc(C)n3)C(F)(F)F)nc(N)n2)cc1.O=C(O)CNC(=O)c1ccccc1 [Telotristat Etiprate]	0.1554	0.8439	0.1841	0.0037	-3.063	–	Fraction (10 μM): 0.1841; Percent AZD3965 (10 μM): 93.4718%; Z.score (10 μM): -3.063
CO[C@H]1C[C@@H]2CC[C@@H](C)[C@@](O)(O2)C(=O)C(=O)N2CCCC[C@H]2C(=O)O[C@H]([C@H](C)C[C@@H]2CC[C@@H](OC(=O)C(C)(CO)CO)[C@H](OC)C2)CC(=O)[C@H](C)/C=C(\C)[C@@H](O)[C@@H](OC)C(=O)[C@H](C)C[C@H](C)/C=C/C=C/C=C/1C [Temsirolimus]	0.0823	0.2915	–	–	–	–	Fraction (10 μM): 0.2823; Percent AZD3965 (10 μM): 70.7028%; Z.score (10 μM): -3.514
CCN(CC)C(=S)SSC(=S)N(CC)CC [Tetraethylthiuram disulfide]	0.0435	0.1492	0.2916	–	-5.039	74.5715	–
Cc1c(Cl)cccc1Nc1ccccc1C(=O)O [Tolfenamic acid]	–	–	–	–	–	5.445	Z-score: -0.275
Cc1ccc(C(=O)c2ccc(CC(=O)O)n2C)cc1 [Tolmetin]	–	–	–	–	–	2.22	Z-score: -0.07254
Oc1cc(Cl)ccc1Oc1ccc(Cl)cc1Cl [Triclosan]	0.0998	0.8741	–	–	–	–	Fraction (10 μM): 0.1142; Percent AZD3965 (10 μM): 105.691%; Z.score (10 μM): -5.31
COc1ccc2c(c1)CC[C@@H]1[C@@H]2CC[C@]2(C)[C@H](NCCCCCCN3C(=O)C=CC3=O)CC[C@@H]12 [U 73122]	0.3216	0.8373	0.3841	–	-3.681	59.5129	–
Cc1onc(-c2ccccc2)c1-c1ccc(S(N)(=O)=O)cc1 [Valdecoxib]	–	–	–	–	–	-4.123	Z-score: 0.1994
CCC[C@H](NC(=O)/C(C#N)=C/c1cccc(Br)n1)c1ccccc1 [WP1130]	0.1984	0.8053	0.2464	–	-3.301	80.6983	–
COc1cc(C(=O)NS(=O)(=O)c2ccccc2C)ccc1Cc1cn(C)c2ccc(NC(=O)OC3CCCC3)cc12 [Zafirlukast]	0.2267	0.8008	0.2831	0.0814	-3.328	72.7899	–
Cc1cc(CC(=O)O)n(C)c1C(=O)c1ccc(Cl)cc1 [Zomepirac]	–	–	–	–	–	4.477	Z-score: -0.3392
COc1c(O)cc2oc3cc(O)c(CC=C(C)C)c(O)c3c(=O)c2c1CC=C(C)C [alpha-MANGOSTIN]	–	–	–	–	–	–	Fraction (10 μM): 0.4127; Percent AZD3965 (10 μM): 51.3584%; Z.score (10 μM): -4.281
COc1c(O)cc2oc3cc(O)c(CC=C(C)C)c(O)c3c(=O)c2c1CC=C(C)C [alpha-mangostin]	0.3553	0.861	0.4127	0.2019	-4.281	–	Percent: 51.3584%
Cc1cccc(Nc2ccccc2C(=O)O)c1C [mefenamic acid, reference compound]	–	–	–	–	–	-1.599	Z-score: 0.1459
Erythrosine	0.2221	0.7974	0.2785	0.0608	-9.564	–	Percent: 79.5231%
Loxoprofen	–	–	–	–	–	-3.102	Z-score: 0.1484
OXYCLOZANIDE	0.1981	0.8387	–	–	–	–	Fraction (10 μM): 0.2362; Percent AZD3965 (10 μM): 84.9348%; Z.score (10 μM): -4.286
YM155	0.2126	0.8959	0.2373	–	-3.377	82.5642	–
